# Source: the supplement of paper PMC8728848
# This is one part of the list.
# B1: MIC4-A5 (Toxoplasma gondii), Q9XZH7 (protein)
# chain: SPDFHDEVECVHTGNIGSKAQTIGEVKRASSLSECRARCQAEKECSHYTYNVKSGLCYPKRGKPQFYKYLGDMTGSRTCDTS
# Tests used:
# Assay in all cases: glycan array binding signal (z-score within array); higher = stronger binding
# Settings in all cases: glycan notation: IUPAC condensed, linker removed
# [1] = biological target: Glc(b1-3)Glc(b1-3)Glc(b1-3)Glc(b1-3)Glc(b1-3)Glc(b1-3)Glc(b1-3)Glc(b1-3)Glc(b1-3)Glc(b1-3)Glc(b1-3)Glc
# Method in brief: (§1)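 Negative Z-scores can be read as non-binding. The Z-score is calculated within each array and then averaged across arrays of one protein sequence at different concentrations or buffers and across linkers. Arrays, 3228 in all, were curated from the Consortium for Functional Glycomics database and kept only where the protein sequence was available.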
# [2] = biological target: Glc(b1-3)Glc(b1-3)Glc(b1-3)Glc(b1-3)Glc(b1-3)Glc(b1-3)Glc(b1-3)Glc(b1-3)Glc(b1-3)Glc(b1-3)Glc(b1-3)Glc(b1-3)Glc
# Method in brief: as §1
# Glc(b1-4)Glc = biological target: Glc(b1-4)Glc
# Method in brief: as §1
# Glc(b1-4)Glc(b1-4)Glc = biological target: Glc(b1-4)Glc(b1-4)Glc
# Method in brief: as §1
# [3] = biological target: Glc(b1-4)Glc(b1-4)Glc(b1-4)Glc
# Method in brief: as §1
# [4] = biological target: Glc(b1-4)Glc(b1-4)Glc(b1-4)Glc(b1-4)Glc
# Method in brief: as §1
# [5] = biological target: Glc(b1-4)Glc(b1-4)Glc(b1-4)Glc(b1-4)Glc(b1-4)Glc
# Method in brief: as §1
# [6] = biological target: Glc(b1-4)Glc(b1-4)Glc(b1-4)Glc(b1-4)Glc(b1-4)Glc(b1-4)Glc
# Method in brief: as §1
# [7] = biological target: Glc(b1-4)Glc(b1-4)Glc(b1-4)Glc(b1-4)Glc(b1-4)Glc(b1-4)Glc(b1-4)Glc
# Method in brief: as §1
# [8] = biological target: Glc(b1-4)Glc(b1-4)Glc(b1-4)Glc(b1-4)Glc(b1-4)Glc(b1-4)Glc(b1-4)Glc(b1-4)Glc
# Method in brief: as §1
# [9] = biological target: Glc(b1-4)Glc(b1-4)Glc(b1-4)Glc(b1-4)Glc(b1-4)Glc(b1-4)Glc(b1-4)Glc(b1-4)Glc(b1-4)Glc
# Method in brief: as §1
# [10] = biological target: Glc(b1-4)Glc(b1-4)Glc(b1-4)Glc(b1-4)Glc(b1-4)Glc(b1-4)Glc(b1-4)Glc(b1-4)Glc(b1-4)Glc(b1-4)Glc
# Method in brief: as §1
# [11] = biological target: Glc(b1-4)Glc(b1-4)Glc(b1-4)Glc(b1-4)Glc(b1-4)Glc(b1-4)Glc(b1-4)Glc(b1-4)Glc(b1-4)Glc(b1-4)Glc(b1-4)Glc
# Method in brief: as §1
# [12] = biological target: Glc(b1-4)Glc(b1-4)Glc(b1-4)Glc(b1-4)Glc(b1-4)Glc(b1-4)Glc(b1-4)Glc(b1-4)Glc(b1-4)Glc(b1-4)Glc(b1-4)Glc(b1-4)Glc
# Method in brief: as §1
# Glc(b1-6)Glc = biological target: Glc(b1-6)Glc
# Method in brief: as §1
# Glc(b1-6)Glc(b1-6)Glc = biological target: Glc(b1-6)Glc(b1-6)Glc
# Method in brief: as §1
# [13] = biological target: Glc(b1-6)Glc(b1-6)Glc(b1-6)Glc
# Method in brief: as §1
# [14] = biological target: Glc(b1-6)Glc(b1-6)Glc(b1-6)Glc(b1-6)Glc
# Method in brief: as §1
# [15] = biological target: Glc(b1-6)Glc(b1-6)Glc(b1-6)Glc(b1-6)Glc(b1-6)Glc
# Method in brief: as §1
# [16] = biological target: Glc(b1-6)Glc(b1-6)Glc(b1-6)Glc(b1-6)Glc(b1-6)Glc(b1-6)Glc
# Method in brief: as §1
# [17] = biological target: Glc(b1-6)Glc(b1-6)Glc(b1-6)Glc(b1-6)Glc(b1-6)Glc(b1-6)Glc(b1-6)Glc
# Method in brief: as §1
# [18] = biological target: Glc(b1-6)Glc(b1-6)Glc(b1-6)Glc(b1-6)Glc(b1-6)Glc(b1-6)Glc(b1-6)Glc(b1-6)Glc
# Method in brief: as §1
# [19] = biological target: Glc(b1-6)Glc(b1-6)Glc(b1-6)Glc(b1-6)Glc(b1-6)Glc(b1-6)Glc(b1-6)Glc(b1-6)Glc(b1-6)Glc
# Method in brief: as §1
# [20] = biological target: Glc(b1-6)Glc(b1-6)Glc(b1-6)Glc(b1-6)Glc(b1-6)Glc(b1-6)Glc(b1-6)Glc(b1-6)Glc(b1-6)Glc(b1-6)Glc
# Method in brief: as §1
# [21] = biological target: Glc(b1-6)Glc(b1-6)Glc(b1-6)Glc(b1-6)Glc(b1-6)Glc(b1-6)Glc(b1-6)Glc(b1-6)Glc(b1-6)Glc(b1-6)Glc(b1-6)Glc
# Method in brief: as §1
# [22] = biological target: Glc(b1-6)Glc(b1-6)Glc(b1-6)Glc(b1-6)Glc(b1-6)Glc(b1-6)Glc(b1-6)Glc(b1-6)Glc(b1-6)Glc(b1-6)Glc(b1-6)Glc(b1-6)Glc
# Method in brief: as §1
# GlcA(b1-3)Gal = biological target: GlcA(b1-3)Gal
# Method in brief: as §1
# [23] = biological target: GlcA(b1-3)Gal(b1-3)GlcNAc
# Method in brief: as §1
# [24] = biological target: GlcA(b1-3)Gal(b1-4)GlcNAc(b1-3)Gal(b1-4)Glc
# Method in brief: as §1
# [25] = biological target: GlcA(b1-3)Gal(b1-4)GlcNAc(b1-3)Gal(b1-4)GlcNAc(b1-3)Gal(b1-4)Glc
# Method in brief: as §1
# [26] = biological target: GlcA(b1-3)GlcNAc(b1-4)GlcA(b1-3)GlcNAc
# Method in brief: as §1
# [27] = biological target: GlcA(b1-3)GlcNAc(b1-4)GlcA(b1-3)GlcNAc(b1-4)GlcA(b1-3)GlcNAc(b1-4)GlcA(b1-3)GlcNAc(b1-4)GlcA(b1-3)GlcNAc(b1-4)GlcA(b1-3)GlcNAc(b1-4)GlcA(b1-3)GlcNAc
# Method in brief: as §1
# [28] = biological target: GlcA(b1-4)GlcNAc(a1-4)GlcA(b1-4)2,5-Anhydro-Man
# Method in brief: as §1
# [29] = biological target: GlcA(b1-4)GlcNAc(a1-4)GlcA(b1-4)GlcNAc(a1-4)GlcA(b1-4)GlcNAc(a1-4)GlcA(b1-4)2,5-Anhydro-Man
# Method in brief: as §1
# GlcA3S(b1-3)Gal = biological target: GlcA3S(b1-3)Gal
# Method in brief: as §1
# [30] = biological target: GlcA3S(b1-3)Gal(b1-4)GlcNAc(b1-3)Gal(b1-4)Glc
# Method in brief: as §1
# [31] = biological target: GlcA3S(b1-3)Gal(b1-4)GlcNAc(b1-3)Gal(b1-4)GlcNAc(b1-3)Gal(b1-4)Glc
# Method in brief: as §1
# GlcNAc(a1-4)Gal = biological target: GlcNAc(a1-4)Gal
# Method in brief: as §1
# [32] = biological target: GlcNAc(a1-4)Gal(b1-3)[Fuc(a1-2)]Gal
# Method in brief: as §1
# GlcNAc(b1-2)Fuc = biological target: GlcNAc(b1-2)Fuc
# Method in brief: as §1
# GlcNAc(b1-2)Man = biological target: GlcNAc(b1-2)Man
# Method in brief: as §1
# [33] = biological target: GlcNAc(b1-2)Man(a1-3)[GlcNAc(b1-2)Man(a1-6)]Man
# Method in brief: as §1
# [34] = biological target: GlcNAc(b1-2)Man(a1-3)[GlcNAc(b1-2)Man(a1-6)]Man(b1-4)GlcNAc(b1-4)GlcNAc
# Method in brief: as §1
# [35] = biological target: GlcNAc(b1-2)Man(a1-3)[GlcNAc(b1-2)Man(a1-6)]Man(b1-4)GlcNAc(b1-4)[Fuc(a1-6)]GlcNAc
# Method in brief: as §1
# [36] = biological target: GlcNAc(b1-2)Man(a1-3)[GlcNAc(b1-2)Man(a1-6)][GlcNAc(b1-4)]Man(b1-4)GlcNAc(b1-4)GlcNAc
# Method in brief: as §1
binder,measurement,setting,value
B1,glycan array binding signal (z-score),[1],-0.323
same,glycan array binding signal (z-score),[2],-0.323
same,glycan array binding signal (z-score),Glc(b1-4)Glc,-0.312
same,glycan array binding signal (z-score),Glc(b1-4)Glc(b1-4)Glc,-0.323
same,glycan array binding signal (z-score),[3],-0.323
same,glycan array binding signal (z-score),[4],-0.323
same,glycan array binding signal (z-score),[5],-0.323
same,glycan array binding signal (z-score),[6],-0.323
same,glycan array binding signal (z-score),[7],-0.323
same,glycan array binding signal (z-score),[8],-0.323
same,glycan array binding signal (z-score),[9],-0.323
same,glycan array binding signal (z-score),[10],-0.323
same,glycan array binding signal (z-score),[11],-0.323
same,glycan array binding signal (z-score),[12],-0.323
same,glycan array binding signal (z-score),Glc(b1-6)Glc,-0.308
same,glycan array binding signal (z-score),Glc(b1-6)Glc(b1-6)Glc,-0.314
same,glycan array binding signal (z-score),[13],-0.323
same,glycan array binding signal (z-score),[14],-0.323
same,glycan array binding signal (z-score),[15],-0.323
same,glycan array binding signal (z-score),[16],-0.323
same,glycan array binding signal (z-score),[17],-0.323
same,glycan array binding signal (z-score),[18],-0.323
same,glycan array binding signal (z-score),[19],-0.323
same,glycan array binding signal (z-score),[20],-0.323
same,glycan array binding signal (z-score),[21],-0.323
same,glycan array binding signal (z-score),[22],-0.323
same,glycan array binding signal (z-score),GlcA(b1-3)Gal,-0.323
same,glycan array binding signal (z-score),[23],-0.323
same,glycan array binding signal (z-score),[24],-0.323
same,glycan array binding signal (z-score),[25],-0.323
same,glycan array binding signal (z-score),[26],-0.323
same,glycan array binding signal (z-score),[27],-0.323
same,glycan array binding signal (z-score),[28],-0.323
same,glycan array binding signal (z-score),[29],-0.323
same,glycan array binding signal (z-score),GlcA3S(b1-3)Gal,-0.323
same,glycan array binding signal (z-score),[30],-0.323
same,glycan array binding signal (z-score),[31],-0.323
same,glycan array binding signal (z-score),GlcNAc(a1-4)Gal,-0.323
same,glycan array binding signal (z-score),[32],-0.319
same,glycan array binding signal (z-score),GlcNAc(b1-2)Fuc,-0.323
same,glycan array binding signal (z-score),GlcNAc(b1-2)Man,-0.323
same,glycan array binding signal (z-score),[33],-0.323
same,glycan array binding signal (z-score),[34],-0.321
same,glycan array binding signal (z-score),[35],-0.323
same,glycan array binding signal (z-score),[36],-0.321
